{"source": "paper PMC4336329", "about": "(PLoS ONE, 2015)", "note": "About 2,200 (0.71%) of roughly 310,000 compounds showed an effect of 50% or more. The effect is printed as a negative number. The list shows a part of the results.", "data": [{"molecular_target": "human ether-à-go-go-related gene (hERG) potassium channel (human, UniProt Q12809)", "sequence (Q12809 whole entry, looked up)": "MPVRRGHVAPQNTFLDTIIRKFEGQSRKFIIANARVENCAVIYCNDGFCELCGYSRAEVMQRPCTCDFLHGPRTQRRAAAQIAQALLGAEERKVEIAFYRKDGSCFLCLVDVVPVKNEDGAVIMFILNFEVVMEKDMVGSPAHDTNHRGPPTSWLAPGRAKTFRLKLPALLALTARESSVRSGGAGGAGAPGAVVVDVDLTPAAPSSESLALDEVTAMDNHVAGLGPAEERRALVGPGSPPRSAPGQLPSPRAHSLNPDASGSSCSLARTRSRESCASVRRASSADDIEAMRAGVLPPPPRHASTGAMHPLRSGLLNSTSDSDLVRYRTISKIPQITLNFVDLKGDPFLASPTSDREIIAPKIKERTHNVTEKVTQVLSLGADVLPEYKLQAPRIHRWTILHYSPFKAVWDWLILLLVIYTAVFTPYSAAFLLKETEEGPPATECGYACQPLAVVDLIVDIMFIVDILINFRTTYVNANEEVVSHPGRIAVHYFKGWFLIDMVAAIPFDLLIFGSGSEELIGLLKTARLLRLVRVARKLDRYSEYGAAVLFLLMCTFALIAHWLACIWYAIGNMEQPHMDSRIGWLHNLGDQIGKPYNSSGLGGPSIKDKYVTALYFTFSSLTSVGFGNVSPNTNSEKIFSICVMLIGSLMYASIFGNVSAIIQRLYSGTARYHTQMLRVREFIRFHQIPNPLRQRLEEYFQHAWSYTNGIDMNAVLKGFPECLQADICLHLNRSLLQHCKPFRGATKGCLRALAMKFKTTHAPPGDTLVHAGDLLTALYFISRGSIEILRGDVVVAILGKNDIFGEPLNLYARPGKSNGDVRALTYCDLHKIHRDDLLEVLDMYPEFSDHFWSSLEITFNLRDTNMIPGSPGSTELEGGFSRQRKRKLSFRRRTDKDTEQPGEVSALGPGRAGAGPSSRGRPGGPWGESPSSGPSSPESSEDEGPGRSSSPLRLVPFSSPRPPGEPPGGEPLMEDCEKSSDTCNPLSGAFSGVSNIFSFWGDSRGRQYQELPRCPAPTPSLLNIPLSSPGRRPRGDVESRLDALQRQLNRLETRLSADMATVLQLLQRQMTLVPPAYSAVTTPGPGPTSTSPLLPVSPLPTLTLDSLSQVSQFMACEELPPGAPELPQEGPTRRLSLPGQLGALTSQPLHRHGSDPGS", "experiment": "primary screen, population patch clamp on CHO cells stably expressing hERG", "units": {"hERG current change (%, negative = inhibition) at 1uM": "%"}, "values": [{"smiles": "O=C1C2C(C(=O)N1/N=C/c1ccco1)C1C=CC2C12CC2", "note": "(centres unmarked)", "hERG current change (%, negative = inhibition) at 1uM": 7.68}, {"smiles": "COc1ccc(-n2nc(C(=O)NCC(=O)NCCC3=CCCCC3)c3ccccc3c2=O)cc1", "hERG current change (%, negative = inhibition) at 1uM": 18.9}, {"smiles": "CCc1cc2c3c(c(=O)oc2cc1OCC(=O)OC)CCCC3", "hERG current change (%, negative = inhibition) at 1uM": 14.9}, {"smiles": "Oc1nc(Nc2cccc(Cl)c2)sc1/C=C1\\C=Nc2ccccc21", "hERG current change (%, negative = inhibition) at 1uM": 9.18}, {"smiles": "O=C(Nc1ccon1)c1nc[nH]c1C(=O)NCc1ccccc1", "hERG current change (%, negative = inhibition) at 1uM": 15.5}, {"smiles": "COCCN(C(=O)COC(=O)c1ccc2c(c1)OCCO2)c1c(N)n(Cc2ccccc2)c(=O)[nH]c1=O", "hERG current change (%, negative = inhibition) at 1uM": 4.05}, {"smiles": "O=C(Nc1cccc(F)c1)NC1CC2CCCC(C1)N2C1CC1", "note": "(centres unmarked)", "hERG current change (%, negative = inhibition) at 1uM": 4.85}, {"smiles": "CC(C)(CC(=O)O)CC(=O)Nc1ccc2c(c1)ncn2CCc1ccccc1", "hERG current change (%, negative = inhibition) at 1uM": 13.6}, {"smiles": "CC(C)(C)c1csc(NNC(=O)c2ccc(Br)cc2)n1", "hERG current change (%, negative = inhibition) at 1uM": 11.2}, {"smiles": "CCOC(=O)CC1C(=O)NCCN1S(=O)(=O)c1ccc(Br)cc1", "note": "(centres unmarked)", "hERG current change (%, negative = inhibition) at 1uM": 6.26}, {"smiles": "Cc1ccc(CNC(=O)c2ccc(CNc3c(N4CCCC4)c(=O)c3=O)cc2)cc1", "hERG current change (%, negative = inhibition) at 1uM": 3.83}, {"smiles": "COc1ccccc1Cc1nc(-c2ccc(C)cc2)no1", "hERG current change (%, negative = inhibition) at 1uM": 3.86}, {"smiles": "OCC1(CCc2ccccc2)CCN(Cc2ccc3nsnc3c2)CC1", "hERG current change (%, negative = inhibition) at 1uM": -69.1}, {"smiles": "CC(NC(=O)CN1CCN(S(=O)(=O)c2ccc(Br)cc2)CC1)c1ccccc1", "note": "(centres unmarked)", "hERG current change (%, negative = inhibition) at 1uM": 4.1}, {"smiles": "CCCOc1ccc(C(=O)Nc2ccc(N3CCN(C(=O)c4ccco4)CC3)cc2)cc1", "hERG current change (%, negative = inhibition) at 1uM": 20.6}, {"smiles": "COc1ccc(-c2cc(C(=O)OCC(=O)c3c(N)n(C)c(=O)n(C)c3=O)c3ccccc3n2)cc1", "hERG current change (%, negative = inhibition) at 1uM": 13.3}, {"smiles": "O=C(Nc1ccc(-c2cn3c(n2)SCC3)cc1)c1ccco1", "hERG current change (%, negative = inhibition) at 1uM": 12.1}, {"smiles": "CN(C)CCCN(C(=O)c1ccc(S(=O)(=O)N(C)C2CCCCC2)cc1)c1nc2ccc(Br)cc2s1.Cl", "hERG current change (%, negative = inhibition) at 1uM": -7.7}, {"smiles": "COCCN1CCc2[nH]c(=S)[nH]c(=O)c2C1", "hERG current change (%, negative = inhibition) at 1uM": 0.554}, {"smiles": "CCN1CCN(CCC(=O)Nc2ccccc2)CC1", "hERG current change (%, negative = inhibition) at 1uM": 9.51}, {"smiles": "Cc1cc2c(OCC(O)CNC(C)(C)C)cccc2[nH]1", "note": "(centres unmarked)", "hERG current change (%, negative = inhibition) at 1uM": 9.16}, {"smiles": "CC(C)c1ccc(OCc2ccc(C(=O)O)o2)cc1", "hERG current change (%, negative = inhibition) at 1uM": 2.32}, {"smiles": "COCCCN1CC(=O)N2C(c3ccc(C)cc3)c3[nH]c4ccccc4c3C[C@H]2C1=O", "note": "(some centres unmarked)", "hERG current change (%, negative = inhibition) at 1uM": 4.28}, {"smiles": "Cc1nn(CCCC(=O)Nc2c(F)cc(F)cc2Br)c(C)c1[N+](=O)[O-]", "hERG current change (%, negative = inhibition) at 1uM": 5.98}, {"smiles": "Cc1ccc(-c2nnc(Nc3ccc(CC(N)=O)cc3)c3ccccc23)cc1S(N)(=O)=O", "hERG current change (%, negative = inhibition) at 1uM": 13.2}, {"smiles": "O=C(NN=C1CCC(=NNC(=O)c2cccnc2)CC1)c1cccnc1", "hERG current change (%, negative = inhibition) at 1uM": 19.4}, {"smiles": "CCOCCCNC(=O)C(Cc1ccccc1)NS(=O)(=O)c1cccc2nsnc12", "note": "(centres unmarked)", "hERG current change (%, negative = inhibition) at 1uM": 7.61}, {"smiles": "Cc1ccc(OCC(=O)N2CCC3(CC2)CC(=O)c2ccccc2O3)cc1", "hERG current change (%, negative = inhibition) at 1uM": -49}, {"smiles": "COc1cc(C2C3=C(CCCC3=O)Nc3c2c(C)nn3-c2cccc(C)c2)cc(OC)c1O", "note": "(centres unmarked)", "hERG current change (%, negative = inhibition) at 1uM": 8.55}, {"smiles": "Cc1ccnc(-n2c(-c3ccco3)nc3ccccc3c2=O)c1", "hERG current change (%, negative = inhibition) at 1uM": 0.384}, {"smiles": "CC1(C)Cc2c(sc3nnn(Cc4ccccc4)c(=O)c23)CO1", "hERG current change (%, negative = inhibition) at 1uM": 11.2}, {"smiles": "COc1cccc(CN2CC(C(=O)NC3CCC3)CCC2=O)c1", "note": "(centres unmarked)", "hERG current change (%, negative = inhibition) at 1uM": 18.3}, {"smiles": "COc1ccc(CN2CCCC(C(=O)Nc3cccc(-n4cccn4)c3)C2)c(F)c1", "note": "(centres unmarked)", "hERG current change (%, negative = inhibition) at 1uM": 12.3}, {"smiles": "CCOc1ccc(N(CC(=O)O)S(=O)(=O)c2cccnc2)cc1", "hERG current change (%, negative = inhibition) at 1uM": 12.8}, {"smiles": "CCOC(=O)NCc1ccc2c(c1)cc(C)n2C", "hERG current change (%, negative = inhibition) at 1uM": 13.4}, {"smiles": "O=C(NC(=S)Nc1nc2c(s1)CCCC2)c1ccc(C(=O)c2ccccc2)cc1", "hERG current change (%, negative = inhibition) at 1uM": -1.13}, {"smiles": "Cc1cccc(C(=O)c2ccccc2C(=O)O)c1", "hERG current change (%, negative = inhibition) at 1uM": 16.5}, {"smiles": "CC(=O)NC(C)C(=O)OCC(=O)Nc1ccc(Br)cc1", "note": "(centres unmarked)", "hERG current change (%, negative = inhibition) at 1uM": 2.05}, {"smiles": "COc1ccccc1CN1CCN(S(=O)(=O)c2ccc(C)cc2)CC1", "hERG current change (%, negative = inhibition) at 1uM": 10.7}, {"smiles": "CCCn1nnc(NC(=O)c2cccc(Cl)c2)n1", "hERG current change (%, negative = inhibition) at 1uM": 11.9}, {"smiles": "CCOc1cc(S(=O)(=O)NCCCn2ccnc2)ccc1Cl", "hERG current change (%, negative = inhibition) at 1uM": -8.45}, {"smiles": "C=CCNC(=O)C1CCN(c2ccc(S(=O)(=O)N3CCOCC3)cc2[N+](=O)[O-])CC1", "hERG current change (%, negative = inhibition) at 1uM": -2.79}, {"smiles": "Cl.c1ccc(C2CNCCc3ccccc32)cc1", "note": "(centres unmarked)", "hERG current change (%, negative = inhibition) at 1uM": -2.35}, {"smiles": "CCn1nc(C)cc1C(=O)N1CCCC(Nc2ccc(F)c(F)c2)C1", "note": "(centres unmarked)", "hERG current change (%, negative = inhibition) at 1uM": 12}]}]}
